# In article PMC10726135:
# Some of the results follow. At the low end of the ranking the order means little. The protein was read in a cell extract, so binding may be indirect.
# Molecular target: T1, HNF4alpha2 (COS-7 nuclear extract) (UniProt P41235)
# T1 sequence: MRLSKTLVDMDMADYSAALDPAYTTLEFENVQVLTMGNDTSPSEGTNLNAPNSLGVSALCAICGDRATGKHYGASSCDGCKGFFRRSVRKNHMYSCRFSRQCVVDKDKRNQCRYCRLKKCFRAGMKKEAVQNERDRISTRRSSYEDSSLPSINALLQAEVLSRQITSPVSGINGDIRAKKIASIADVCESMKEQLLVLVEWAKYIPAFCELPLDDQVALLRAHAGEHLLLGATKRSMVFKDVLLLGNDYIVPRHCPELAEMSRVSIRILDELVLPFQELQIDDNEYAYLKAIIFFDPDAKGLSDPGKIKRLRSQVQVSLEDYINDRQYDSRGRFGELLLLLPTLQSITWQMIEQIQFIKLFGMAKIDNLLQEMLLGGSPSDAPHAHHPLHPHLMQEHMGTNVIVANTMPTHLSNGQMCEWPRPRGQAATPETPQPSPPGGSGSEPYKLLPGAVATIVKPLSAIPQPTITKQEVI
# Test: protein-binding microarray
# Conditions: COS-7 nuclear extract on double-stranded Agilent 4x180k PBM; binding buffer, salt, pH and temperature not given; high values mean tight binding; double strand, one strand shown; sequences stand for … in …GCCTAGGGAGATTAGAGTATCGGTCGA
row,Sequence,binding signal (log2 normalized intensity)
1,TCTTCACCTGCCCTGAGTCCAGCCTTCCTG,0.422
2,GGTGGACTGATAGGTGCGTGGGGGAGGGGC,-1.14
3,TACAAAATTTACTTTAAATACACCTAACCC,-1.06
4,CCAGTGTGTTGTGCTGACCTCCTGTCTCAT,2.51
5,CATCTGGGCAAGGTGTCAACCTTCATTCTC,1.26
6,CCAACAAAAGAAAGCCCATTAAATCTTCCC,-1.19
7,GTGGCCTTGCCATTGGAGGTCACCCTGTGT,2.16
8,GATCCCGAAAGCCGGTTCCCGCCCAAGGAG,-1.19
9,GAATTCCACAGCAGAAGGCAACAGCTCTGG,-1.22
10,GGGAAAACCTGACTGCGCTCCCAGAAGCCT,-1.08
11,TCTCCCAATCTCGAGATCATTTACATGTGT,1.91
12,GTCAAAAGGGGAAATATGTAGGTTTGGGGA,-1.18
13,AAAGTTTGGACTAGCCACAGGGGAAACACA,-1.19
14,TGTTCCACAGCAAGTAAATTCCGGGGCTGG,-0.993
15,TCATAATTTTGGACTTTGTGCAAATGGAAA,3.85
16,GTCAGATGACAGAATTGGTCCTGGAACTCA,-0.0244
17,TGAGGATACCAGAAATTCCATGATTTTCTG,-1.21
18,ACTGCCTGACCCCAAGTAATAGCCGTTTCT,1.07
19,AGACACAAAAAGGCAAAGGTGTCAGGACCT,-1.02
20,AAGCAGCATTCCACCAAATCTTACCTAAGG,-1.28
21,TTCAGGGAGCGAATAAATACATAAAGTCCA,1.08
22,ACCAAACAGAGAGAAAGCAGTGACCATCCC,-1.02
23,TTTAATTATCATCTCTGTGTATAAGACTCT,1.18
24,GAACGGAATGTGTGATAAGGAACTGTGTAA,1.15
25,ATCAGCAAGGGCATTTGCGTAGGCTGTCAG,0.263

row,Sequence,binding signal (log2 normalized intensity)
1,ATAGGGTTCAAACTCCTATGTGAATCTAAT,1.11
2,GCAACCTTTGCTCTCCCTCCTCTCTGAGCA,1.7
3,GGATGGGGAGGGGGCAGGTAAGTACCAATA,-1.1
4,CACCTCGTCCAGGTGTCTTCAGGCTGGGGC,-0.695
5,TTCCCTACCCCCTGGGAGTAACCTGCTTGT,1.83
6,ATTTTCTCATCCCAGGGATAATGATAAAGA,-0.184
7,AGTCACACACACCTGTGTCCCCCAGGTCCA,3.02
8,AAGGTAGATACTATAATTAGAATCTGCAGG,-0.67
9,TTTCTGTATCTAATCTCAGATATGCTAATT,0.904
10,CTCTGCAGGAGGACTGGATCAATGGATCCA,-1.11
11,TACCCGGCAAAGAATTGTGAGTCCAGTTGA,0.86
12,GGCCCCAGCAGGCCAGGCCAAATCAGAACT,-1.16
13,CCCGGCCAGCAGATGAGCCTGTTGGGAGCC,-1.17
14,ATCTTCCAGGCCTCCAGCTCTTTTGAACCC,3.88
15,GGTCAAGAGGGCCTCTGCTTGTCTTGGTTG,0.619
16,CTCACTCTAAAGGAAGGGATTATAAAGCTT,-1.01
17,AAGGTGAAGGAGAATATTAGATGATAAGGG,-1.23
18,GGCCAGTTTCTCCACAGCCTCACCAACAGG,-1.05
19,TTCCCTGCAGAAAAGGCCCCAGGGATTGCA,1.41
20,CACATTCCAGAACCAAGATTTACATCCTAT,-1.08
21,CTTTATCTAGATAAGTTTATTTACTTATGT,1.49
22,GGCTGATGACCTTTGACTGAGATGGGAGCA,4.03
23,CCATTTATAAGAAACTGCTCCTGCTTGGGA,-1.05
24,CCAAGGAAGGGCAAACTCTAGCTGTCCTCC,-1.08
25,TCGTCCCTTCCCTCTGTCTTCAAAACCACA,1.63

row,Sequence,binding signal (log2 normalized intensity)
1,AACTGATTACTGCACCCCCTTCCCACCTGC,5.04
2,CCACTAAGAAGCCCAAGGTTAAAATCACAA,-1.05
3,AGCCGGCTCAAAATAGGCAAGACTGCCACC,-1.17
4,CCTTGACCCTTCCTCCCATTTGCTGCTCTA,2.08
5,CTTGCAGGGGGCCTCCTGCCCCAGGAGCAG,-1.19
6,TCCTGGAACTCTGACCTTTGCCCCCAGCCT,9.67
7,CACCTACTTGGGATGCTGAGGTGGGAGGAT,-0.924
8,CAGGTATTTGGACTTTTTGTAGTTTCAGCT,1.12
9,GGGTCAAGAAGCTCTGGCGCCATCTGGTTT,-1.1
10,ATAGAGAAGTTTTGAAACCCTGTTCTTGTA,0.729
11,TCTTAACATCAGAAGTTGGACTTTGTACAT,9.62
12,GATCTCAGGGTGGACTTTAAACATTCCCAC,4.53
13,CTCCTGGCAGAGCATAGAAGTAAGAAATCA,-0.894
14,AATCGCCTGATTGGTCATACTTGACCCACA,2.53
15,TGGTTGGATTTCTTGGCTTCTCTTGGACCT,3.15
16,CGGTCTGCCCTCTTGTCCTTCCCCTTTTGT,3.18
17,TGAACTTTGAACACCTCTTCTTTCTTCTCT,3.92
18,GAGAGGCTGCTCAGTTTAAGTCAAAATATA,-1.16
19,AAGTAGGGAGGAGGGGAGGGGCCCATGTGG,-1.02
20,CCGAGGTCACTGTATGCCCGAAAGACGCGG,-0.74
21,TAAAACCATGCAAATTGCTGACTTTCTGTG,-0.773
22,TAGCATCACGAAAGGCAACATCTTGAGCCA,-1.03
23,TTGGGCGCCGGAACTGGTCCGGCCCGACTC,-1.05
24,CTACAATCCTCTAAAAAAATAGTTTCAACT,-0.731
25,AGGACATTTCAGCAAAGTTCAGAGAGGAAT,-0.746

row,Sequence,binding signal (log2 normalized intensity)
1,TACTTAGATCAAGATTTTCAACTTGAGGAA,-0.715
2,TTTCCATTTACCTCCGCTGAACCTAGAGCT,-1.11
3,TAAGCTACTGAAAATGACCTTTGTTCCCTG,8.2
4,ATGTTCAAGAAGTTCCAAAGGCCAGTGTGG,1.2
5,TGGAAGTCGCCGTGAGGTTATTTGCAGACT,0.0984
6,AAAGTAAGGTGAAGCCCAGCAGCTCCAGGA,-1.4
7,AGAACTCTTCGAAGACACAAAGCTTGGGTT,-1.14
8,GTATCTGATCTGTGTTTCCACAAACACAGA,-0.616
9,ATCAAAGTATGAGAGCCTGAGAACACTTAT,-1.11
10,CTGACATTCTCCACTTGGTGACTGTCATTT,0.191
11,AGGAAGGTCTGATGGGCCAGGCAGGACAGT,-1.16
12,GGGATTACAGGCGTGAGCCACCGCGCCCCG,-0.976
13,GAGCACTCATTCCTATTCGGTGCTGACCTT,3.47
14,ACTGATAATTGAAAACAGAGATTGGGACTA,-1.11
15,ATGTCTAAGGTTTCTCAGCCCCATCCCCCA,5.41
16,GAATGTAAATAGCTAGGTACTTTGATCTAC,1.56
17,CAGGTTCAAAGGGCTTAATCTTTCCTGCCT,1.18
18,AGATCAAGATTTTCAACTTGAGGAAGACAA,-1.08
19,TCTGGCCTTTTTTTTGTGTGTGTGTCAGAG,2.77
20,TTGACCAAAGTACAGTAATTTCACTGATAT,1.55
21,ATACATTTTTAGGTGGATGCCTAGGATTCT,-0.973
22,TTGGAGATAAAGGAACAGGCCCCAGGGACT,-1.09
23,TTTGAGTCATAAGAAACATTTTACAACCTA,-1.16
24,GGCACAATGCTGCAATTCTCTTTGCCAAAG,-1.04
25,GGAACAAAGGTCAGTCCCGCAGTGAGGGAC,2.4

row,Sequence,binding signal (log2 normalized intensity)
1,TAACCAGTGAAATTGACAAGAGTGTGGCTC,0.829
2,GATTGCTTAATGCAAACTCCAGCATGAGGG,-1.21
3,TTTGTGTGAGGGAGAAGTTTTATGGCAGGG,1.19
4,AAGCAGCATAGGGAGAATGATAAGATATAT,-1.06
5,TCAGCCTGGCTGAAGACCTGTACAGGGACT,1.65
6,AGGCCAAGCAGCTGTGATGAGGCCAGCAGG,-1.06
7,TCTGTGTACAAAGCCCCATATTCATAGACT,2.32
8,TGCTTGGAATGCTATTTGCATTGACACAAC,0.296
9,TAGGACAGAGCAGATGAAAGTAGTTGGGGA,-1.02
10,GGGGAACAGGCCTCCCCCCTTCTGTTTCCA,3.15
11,ATTACCTGGTCAGAAGAAACATGCGATACT,-1.25
12,TAGGTGGTCTGTTTGTGAAACAGTGGGCAA,1.18
13,AAGTTACAAGATCTTTGGACTATTGTGAAG,2.77
14,GTAAAGGGTGACTTTCCAGAACTATCATAC,-0.841
15,TCAACCTGTGAAAATTGGTACTGGACATGG,1.38
16,CCTGGCTTGTAATTCAAGACTATAGACTGT,0.945
17,GACCATGTGATGTGAAGAGTGTGGACTTTC,4.26
18,GCGCCCGTAATCCCAGCTTATGTTTGCAAG,-0.714
19,TTATCTTGGGGCTAATGTCTCTCTGGCCGG,1.29
20,TTGTTTACTCATGTGGTCCTAAGACTAACC,-0.3
21,CCTGTGATACAACGGTTCAAAGGACAGACT,1.54
22,TTCTAGGTAATCACCCTCTCCACCCCCATG,4.99
23,CAAGGTTTGTAACAAGTGCTTTCTTCCCTC,-0.296
24,TCATGGGTGACCCGTTAAGAATGAGACATT,1.53
25,GACCTTGAAATGCCATGTGATCTCTAGACT,0.785

row,Sequence,binding signal (log2 normalized intensity)
1,AGCTGACGCCCCACCCCCTCCACCCCTGCC,6.82
2,CTCACCTGGCTTCCCTTTGATCTTTCCCTT,1.85
3,GAGGCTGCTCTCTGTCCCTGCACCCTACCC,1.6
4,CAACCACTCTTATCAGACAGGATATTTTGA,1.11
5,CTCTCCCCTCGACGCGCCGGCGCAGCCGCG,1.72
6,GTAGGCATAGGAGAAACACATAAACCCTGA,-0.951
7,TTCAGCCATTTTATGACCATGAGGTGACGG,1.6
8,TCTTTATTTATTAACTGGAGATAACACAAC,1.31
9,ACACCTGTGGGTAATTAATCTGATCGCCCT,0.983
10,TCTAATCAGGTCGCTGCCTGCCCCTCTGAC,2.89
11,CGGGTCAAGGGTTCAGGGCTCAGTTGACAT,2.13
12,GCTCAGGCACATTCTGCTGTGTATCACCTC,-0.959
13,AGCATGCTTGGAATATTTAAGGATCCAGAC,0.136
14,TCATAGTAAATCCACTTCTGAGGAGAAGAA,-1.1
15,CCTTTGTGCTGACTAAGAGGAGAAGCAAAT,-0.747
16,TTGTCCCTTTTCTATCCAGATGATCTTTAC,2.25
17,GCAAGAGTCCAAATTCCTAGCCCTCTTTCA,-0.00148
18,ATGATGAAATTTCCTCTTACCACATCTCAA,-0.2
19,TTCGGACATTCCAGGGAACAAGGGGTGGAT,-0.835
20,TCTGACCAACGCCTCCCTCCTTCCGCGGAC,1.13
